Laboratory results taken from patent US20250270339A1 (Alector, published 2025).

T1: Cyno TfR ECD Avi-His (cynomolgus macaque, UniProt Q5RDH6 89-760 (Pongo abelii entry), biotin on the Avi tag (BirA) where captured on streptavidin)
T1 construct: also called Cyno TfR Avi-His; cyno TfR Avi-His
T1 chain: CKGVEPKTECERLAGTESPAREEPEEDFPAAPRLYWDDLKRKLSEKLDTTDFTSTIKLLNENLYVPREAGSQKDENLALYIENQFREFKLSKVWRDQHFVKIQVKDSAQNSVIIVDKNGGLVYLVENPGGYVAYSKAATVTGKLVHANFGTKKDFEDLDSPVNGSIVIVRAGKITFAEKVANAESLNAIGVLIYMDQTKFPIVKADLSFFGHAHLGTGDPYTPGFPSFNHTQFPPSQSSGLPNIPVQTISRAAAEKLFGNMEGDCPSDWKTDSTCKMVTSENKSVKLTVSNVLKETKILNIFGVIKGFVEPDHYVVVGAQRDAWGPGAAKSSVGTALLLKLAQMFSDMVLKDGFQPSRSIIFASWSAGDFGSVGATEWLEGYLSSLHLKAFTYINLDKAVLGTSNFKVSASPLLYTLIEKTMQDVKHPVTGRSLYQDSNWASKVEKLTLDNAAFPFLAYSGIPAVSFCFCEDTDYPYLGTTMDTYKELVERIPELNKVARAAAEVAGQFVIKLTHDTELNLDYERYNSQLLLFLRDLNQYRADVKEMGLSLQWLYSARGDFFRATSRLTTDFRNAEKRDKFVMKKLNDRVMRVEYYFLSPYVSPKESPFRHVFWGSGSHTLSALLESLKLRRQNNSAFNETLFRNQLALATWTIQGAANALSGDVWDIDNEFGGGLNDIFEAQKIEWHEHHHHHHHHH


Molecular target: T1, Cyno TfR ECD Avi-His
Experiment: SPR (Carterra LSA), 2+1 immobilised
Procedure: The remaining unconjugated active groups on the chip were then blocked by injecting 1M Ethanolamine pH 8.5 (Carterra) for 7 minutes using the single channel flow cell.
Estimates of affinity were generated by injecting each analyte over the entire antibody array using the single channel flow cell. […] Data were processed and analyzed using NextGenKIT high-throughput kinetics analysis software (Carterra).

binding result	Binder
binds	TfR9.1B.26 2+1 anti-TfR bispecific antibody (bispecific antibody, human IgG1, kappa, 2+1) heavy 1: EVRLLESGGGLVQPGGSLRLSCAASGFTFSNYAMGWVRQAPGKGLEWVSAISGSGGSTYYADSVKGRFTTSRDDSKNALYLQMNSLRAEDTAVYYCARGGPGWYAADVWGQGTTVTVSSASTKGPSVFPLAPSSKSTSGGTAALGCLVKDYFPEPVTVSWNSGALTSGVHTFPAVLQSSGLYSLSSVVTVPSSSLGTQTYICNVNHKPSNTKVDKKV[here human IgG1 Fc with changes without letters]GGGGSGGGGSGGGGSQVQLVQSGAEVKKPGASVKVSCKASGYTFTEYAMHWVRQAPGQGLEWMGGINPNDGGTSYNQKFKGRVTMTVDTSTSTAYMELSSLRSEDTAVYYCASQGWLLRGGDYWGQGTLVTVSSGGSEDKSSGSGSESKSTGGSDVVMTQSPLSLPVTLGQPASISCKSSQSLLDSDGVTYLNWLQQRPGQSPRRLIYLVSKLDSGVPDRFSGSGSGTDFTLKISRVEAEDVGVYYCWQGTHFPQTFGGGTKVEIK heavy 2: EVRLLESGGGLVQPGGSLRLSCAASGFTFSNYAMGWVRQAPGKGLEWVSAISGSGGSTYYADSVKGRFTTSRDDSKNALYLQMNSLRAEDTAVYYCARGGPGWYAADVWGQGTTVTVSS[here human IgG1 constant region with changes without letters] light: DIQMTQSPSSLSASVGDRVTITCRASQSISSYLNWYQQKPGKAPKLLIYAASSLQSGVPSRFSGSGSGTDFTLTISSLQPEDFATYYCQQADLPAFAFGGGTKVEIKRTVAAPSVFIFPPSDEQLKSGTASVVCLLNNFYPREAKVQWKVDNALQSGNSQESVTEQDSKDSTYSLSSTLTLSKADYEKHKVYACEVTHQGLSSPVTKSFNRGEC
binds	TfR9.1B.27 2+1 anti-TfR bispecific antibody (bispecific antibody, human IgG1, kappa, 2+1) heavy 1: EVRLLESGGGLVQPGGSLRLSCAASGFTFSNYAMGWVRQAPGKGLEWVSAISGSGGSTYYADSVKGRFTTSRDDSKNALYLQMNSLRAEDTAVYYCARGGPGWYAADVWGQGTTVTVSSASTKGPSVFPLAPSSKSTSGGTAALGCLVKDYFPEPVTVSWNSGALTSGVHTFPAVLQSSGLYSLSSVVTVPSSSLGTQTYICNVNHKPSNTKVDKKV[here human IgG1 Fc with changes without letters]GGGGSGGGGSGGGGSQVQLVQSGAEVKKPGASVKVSCKASGYTFTEYAMHWVRQAPGQGLEWMGGINPNDGGTSYNQKFKGRVTMTVDTSTSTAYMELSSLRSEDTAVYYCASQRWLERGGDYWGQGTLVTVSSGGSEGKSSGSGSESKSTGGSDVVMTQSPLSLPVTLGQPASISCKSSQSLLDEDGKTYLNWLQQRPGQSPRRLIYLVSKLDSGVPDRFSGSGSGTDFTLKISRVEAEDVGVYYCWQGTHFPQTFGGGTKVEIK heavy 2: EVRLLESGGGLVQPGGSLRLSCAASGFTFSNYAMGWVRQAPGKGLEWVSAISGSGGSTYYADSVKGRFTTSRDDSKNALYLQMNSLRAEDTAVYYCARGGPGWYAADVWGQGTTVTVSS[here human IgG1 constant region with changes without letters] light: DIQMTQSPSSLSASVGDRVTITCRASQSISSYLNWYQQKPGKAPKLLIYAASSLQSGVPSRFSGSGSGTDFTLTISSLQPEDFATYYCQQADLPAFAFGGGTKVEIKRTVAAPSVFIFPPSDEQLKSGTASVVCLLNNFYPREAKVQWKVDNALQSGNSQESVTEQDSKDSTYSLSSTLTLSKADYEKHKVYACEVTHQGLSSPVTKSFNRGEC

Further lines, the binder ahead of its results:

Binder	binding result
TfR9.1B.20 2+1 anti-TfR bispecific antibody (bispecific antibody, human IgG1, kappa, 2+1) heavy 1: EVRLLESGGGLVQPGGSLRLSCAASGFTFSNYAMGWVRQAPGKGLEWVSAISGSGGSTYYADSVKGRFTTSRDDSKNALYLQMNSLRAEDTAVYYCARGGPGWYAADVWGQGTTVTVSSASTKGPSVFPLAPSSKSTSGGTAALGCLVKDYFPEPVTVSWNSGALTSGVHTFPAVLQSSGLYSLSSVVTVPSSSLGTQTYICNVNHKPSNTKVDKKV[here human IgG1 Fc with changes without letters]GGGGSGGGGSGGGGSQVQLVQSGAEVKKPGASVKVSCKASGYTFTEYAMHWVRQAPGQGLEWMGGINPNDGGTSYNQKFKGRVTMTVDTSTSTAYMELSSLRSEDTAVYYCASQRWLQRGGDYWGQGTLVTVSSGGSEGKSSGSGSESKSTGGSDVVMTQSPLSLPVTLGQPASISCKSSQSLLDSDGKTYLNWLQQRPGQSPRRLIYLVSKLDSGVPDRFSGSGSGTDFTLKISRVEAEDVGVYYCWQGTKFPQTFGGGTKVEIK heavy 2: EVRLLESGGGLVQPGGSLRLSCAASGFTFSNYAMGWVRQAPGKGLEWVSAISGSGGSTYYADSVKGRFTTSRDDSKNALYLQMNSLRAEDTAVYYCARGGPGWYAADVWGQGTTVTVSS[here human IgG1 constant region with changes without letters] light: DIQMTQSPSSLSASVGDRVTITCRASQSISSYLNWYQQKPGKAPKLLIYAASSLQSGVPSRFSGSGSGTDFTLTISSLQPEDFATYYCQQADLPAFAFGGGTKVEIKRTVAAPSVFIFPPSDEQLKSGTASVVCLLNNFYPREAKVQWKVDNALQSGNSQESVTEQDSKDSTYSLSSTLTLSKADYEKHKVYACEVTHQGLSSPVTKSFNRGEC	binds
TfR9.1B.24 2+1 anti-TfR bispecific antibody (bispecific antibody, human IgG1, kappa, 2+1) heavy 1: EVRLLESGGGLVQPGGSLRLSCAASGFTFSNYAMGWVRQAPGKGLEWVSAISGSGGSTYYADSVKGRFTTSRDDSKNALYLQMNSLRAEDTAVYYCARGGPGWYAADVWGQGTTVTVSSASTKGPSVFPLAPSSKSTSGGTAALGCLVKDYFPEPVTVSWNSGALTSGVHTFPAVLQSSGLYSLSSVVTVPSSSLGTQTYICNVNHKPSNTKVDKKV[here human IgG1 Fc with changes without letters]GGGGSGGGGSGGGGSQVQLVQSGAEVKKPGASVKVSCKASGYTFTEYAMHWVRQAPGQGLEWMGGINPNDGGTSYNQKFKGRVTMTVDTSTSTAYMELSSLRSEDTAVYYCASQRWLMRGGDYWGQGTLVTVSSGGSEGKSSSSGSESKSTGGSDVVMTQSPLSLPVTLGQPASISCKSSQSLLDSDGKTYLNWLQQRPGQSPRRLIYLVSKLDSGVPDRFSGSGSGTDFTLKISRVEAEDVGVYYCWQGTHFPQTFGGGTKVEIK heavy 2: EVRLLESGGGLVQPGGSLRLSCAASGFTFSNYAMGWVRQAPGKGLEWVSAISGSGGSTYYADSVKGRFTTSRDDSKNALYLQMNSLRAEDTAVYYCARGGPGWYAADVWGQGTTVTVSS[here human IgG1 constant region with changes without letters] light: DIQMTQSPSSLSASVGDRVTITCRASQSISSYLNWYQQKPGKAPKLLIYAASSLQSGVPSRFSGSGSGTDFTLTISSLQPEDFATYYCQQADLPAFAFGGGTKVEIKRTVAAPSVFIFPPSDEQLKSGTASVVCLLNNFYPREAKVQWKVDNALQSGNSQESVTEQDSKDSTYSLSSTLTLSKADYEKHKVYACEVTHQGLSSPVTKSFNRGEC	binds
TfR9.1B.22 2+1 anti-TfR bispecific antibody (bispecific antibody, human IgG1, kappa, 2+1) heavy 1: EVRLLESGGGLVQPGGSLRLSCAASGFTFSNYAMGWVRQAPGKGLEWVSAISGSGGSTYYADSVKGRFTTSRDDSKNALYLQMNSLRAEDTAVYYCARGGPGWYAADVWGQGTTVTVSSASTKGPSVFPLAPSSKSTSGGTAALGCLVKDYFPEPVTVSWNSGALTSGVHTFPAVLQSSGLYSLSSVVTVPSSSLGTQTYICNVNHKPSNTKVDKKV[here human IgG1 Fc with changes without letters]GGGGSGGGGSGGGGSQVQLVQSGAEVKKPGASVKVSCKASGYTFTEYAMHWVRQAPGQGLEWMGGINPKDGGTSYNQKFKGRVTMTVDTSTSTAYMELSSLRSEDTAVYYCASQGWLLRGGDYWGQGTLVTVSSGGSEGKSSGSGSESKSTGGSDVVMTQSPLSLPVTLGQPASISCKSSQSLLDSDGKTYLNWLQQRPGQSPRRLIYLVSKLDSGVPDRFSGSGSGTDFTLKISRVEAEDVGVYYCWQGTHFPQTFGGGTKVEIK heavy 2: EVRLLESGGGLVQPGGSLRLSCAASGFTFSNYAMGWVRQAPGKGLEWVSAISGSGGSTYYADSVKGRFTTSRDDSKNALYLQMNSLRAEDTAVYYCARGGPGWYAADVWGQGTTVTVSS[here human IgG1 constant region with changes without letters] light: DIQMTQSPSSLSASVGDRVTITCRASQSISSYLNWYQQKPGKAPKLLIYAASSLQSGVPSRFSGSGSGTDFTLTISSLQPEDFATYYCQQADLPAFAFGGGTKVEIKRTVAAPSVFIFPPSDEQLKSGTASVVCLLNNFYPREAKVQWKVDNALQSGNSQESVTEQDSKDSTYSLSSTLTLSKADYEKHKVYACEVTHQGLSSPVTKSFNRGEC	binds
